Hit rate of the full screen: of about 130,000 compounds, about 1,900 (1.5%) were called active. The inconclusive results got no clear call from the source; some entries with a clear call stand among them for comparison. The call rests on the fitted dose curve; in most records, active means well fitted cell-killing curve with a large enough effect; inconclusive means small, poorly fitted or top-dose-only effect; inactive means no such curve, though single readings can be large or run the other way. Where the call is inconclusive, the potency comes from a doubtful curve fit.
assay: qHTS Screen for Compounds that Selectively Target Cancer Cells with p53 Mutations: Cytotoxicity of p53ts Cells at the Nonpermissive Temperature; conditions: H1299-p53A138V viability at 39C, ATP luminescence, 24 h; activity change, negative = cell killing: at 46.1 µM (top of the series); further: nearly all actives have a fitted effect of over 55% in size
On the % scale 0 is the no-effect control and ±100 the full control effect; potency means the concentration at half of the fitted maximal effect; tags describe the fitted curve by direction and shape.

Compound | activity change, negative = cell killing | Potency
CCCOC(=O)CN1C(=O)c2ccccc2C1=O | inactive: 7.95% | 
COc1ccc(-c2cn3cccnc3n2)cc1NC(=O)Nc1ccc(Cl)cc1 |  | inconclusive: 0.158 µM [cytotoxic, partial curve, poor fit]
O=C(N/N=C1/C[C@@H](O)[C@@H](O)[C@@H]2[C@@H]3C(=O)N(C[C@@H]4CCCO4)C(=O)[C@H]3CC[C@H]12)OCc1ccccc1 | inactive: 10.4% [at 9.22 µM] | 
COc1ccc(C2=C(N)c3ccccc3C2=O)cc1 |  | inconclusive: 12.6 µM [cytotoxic, partial curve]
Cc1ccc2c(c1)N(C(=O)N1CCC(C(=O)NCCc3ccc(Cl)cc3)CC1)CC(C)O2 (stereo not drawn) |  | inconclusive: 31.6 µM [cytotoxic, single point]
Cc1cccc(NS(=O)(=O)c2ccc3[nH]c4c(c3c2)CCCCCC4)c1 |  | inconclusive: 31.6 µM [cytotoxic, single point]
Cc1ccc(NC(=O)c2ccccc2)s1 |  | active: 7.94 µM
Cc1nn(-c2ccc(F)cc2)c(-n2cccc2)c1C(=O)NCCc1ccc(Cl)cc1 |  | inconclusive: 15.8 µM [cytotoxic, partial curve]
Cn1c(SCc2nc(-c3ccccc3)no2)nnc1-c1cccs1 | inactive: 7.79% | 
COc1ccc2[nH]cc(CCNc3nc(-c4ccc(N(C)C)cc4)nc4ccccc34)c2c1 |  | active: 12.6 µM
COc1ccc(-c2nnc(N)s2)cc1 |  | inconclusive: 15.8 µM [cytotoxic, single point]
CCCCOc1ccc(C2=NC(c3ccncc3)=Nc3ccc(OCC)cc3N2)cc1 | inactive: -7.39% | 
CCOC(=O)c1cccc(NC(=O)c2cc3ccccn3n2)c1 |  | active: 12.6 µM
COC(=O)c1cc2oc3ccccc3c2n1CC(=O)Nc1ccc(Cl)cc1F |  | active: 10 µM
COc1cccc(-n2c(SCC(=O)Nc3c(C)cc(C)cc3C)nc3c([nH]c4ccccc43)c2=O)c1 | inconclusive: -30.7% [cytotoxic] | 
O=C(CSc1nnc2ccc3ccccc3n12)Nc1ccccc1Cl | inactive: -27.4% | 
O=C(Cc1ccc(F)cc1)NCc1ccc2c(c1)CCN2C(=O)c1ccc(F)cc1 |  | inconclusive: 7.94 µM [cytotoxic, partial curve]
CN(C)C(=O)c1ccc(-c2nccc(-n3ccnc3)n2)cc1 | inactive: 7% | 
COc1ccc(CCNC(=O)c2ccc3c(c2)N(Cc2ccc(F)cc2)C(=O)CS3)cc1OC | inactive: 31.9% | 
Cc1cccc(-c2nc(CCNC(=O)Cc3ccccc3)cs2)c1 |  | inconclusive: 25.1 µM [cytotoxic, partial curve]
O=C(COc1ccc(Cl)cc1)Nc1ccc2nc(SCC(=O)N3CCCC3)sc2c1 | inactive: 3.62% | 
C/C=C(\CS(=O)(=O)c1ccccc1)S(=O)(=O)c1ccccc1 |  | inconclusive: 6.31 µM [cytotoxic, partial curve]
COc1ccccc1NC(=O)CCn1nc(-c2ccccc2)c2ccccc2c1=O |  | inconclusive: 10 µM [cytotoxic, partial curve]
COc1ccc(C2=Nn3c(nc4sc(C(=O)Nc5cccc(C)c5)c(C)c4c3=O)SC2)cc1 | inactive: 22.7% | 
Cc1ccc(-n2ncc3c(Nc4cccc(C)c4)ncnc32)cc1 |  | inconclusive: 6.31 µM [cytotoxic, partial curve]

Compound | activity change, negative = cell killing | Potency
Cc1cccc2c1-c1sc(C(=O)NCCc3ccc(Cl)cc3)cc1CO2 |  | inconclusive: 10 µM [cytotoxic, partial curve]
Cc1nn(-c2nc3ccccc3s2)c(N)c1-c1ccccc1 |  | inconclusive: 12.6 µM [cytotoxic, partial curve]
COc1ccc(-c2nnc(NC(=O)c3ccc(S(=O)(=O)N4COCC4(C)C)cc3)o2)cc1 |  | inconclusive: 7.94 µM [cytotoxic, partial curve]
Cc1cc2c(cc3c(SCc4ccc(Cl)cc4)nnc(C)n32)o1 |  | active: 10 µM
COc1ccc(OC(=O)c2ccncc2)cc1 | inactive: -3.65% | 
CCOC(=O)c1ccccc1NC(=O)CSc1nc2ncccc2o1 |  | inconclusive: 0.0398 µM [cytotoxic, full curve, poor fit]
CN1CCN(c2ccc(NC(=O)c3ccc4c(c3)OCO4)cc2)CC1 |  | inconclusive: 12.6 µM [cytotoxic, partial curve]
O=C(CSc1nncn2c1cc1sccc12)Nc1ccccc1C(F)(F)F |  | inconclusive: 31.6 µM [cytotoxic, single point]
COc1ccc2nc3sc(C(=O)Nc4cc(Cl)c(OC)cc4OC)cc3cc2c1 |  | active: 6.31 µM
Nc1c(C(=O)Nc2cccc(Cl)c2)sc2nc3c(cc12)CN(Cc1ccccc1)CC3 |  | inconclusive: 31.6 µM [cytotoxic, single point]
COc1cccc(-n2c(=O)c3sc4ccccc4c3n(CC(=O)Nc3ccc(F)cc3F)c2=O)c1 |  | inconclusive: 20 µM [cytotoxic, single point]
CC(C)CN(CCCNC(=O)CN1C(=O)COc2ccc(S(=O)(=O)N3CCCCCC3)cc21)CC(C)C |  | inconclusive: 5.01 µM [cytotoxic, partial curve]
Cc1cc(=O)[nH]c(SCC(=O)N2CCCc3ccccc32)n1 | inactive: -2.13% | 
O=C(CCSCc1ccccc1Cl)N1CCN(c2cccc(Cl)c2)CC1 |  | inconclusive: 31.6 µM [cytotoxic, partial curve, poor fit]
N#CC1=C(N)OC(c2ccccc2)=C(C#N)C1c1ccc2c(c1)OCO2 (stereo not drawn) | inactive: 11.8% | 
CCn1nc(-c2ccccc2)c(-c2ccccc2)c(C(=O)Nc2nc(C)c(C(=O)N(C)C)s2)c1=O | inactive: -16.9% | 
Cc1c(C(=O)Nc2ccc(N3CCOCC3)cc2)oc2ccccc12 |  | inconclusive: 10 µM [cytotoxic, partial curve]
CCOC(=O)c1c(C)[nH]c(CCC(=O)NCCCN2CCN(c3cc(C)ccc3C)CC2)c1C |  | inconclusive: 10 µM [cytotoxic, partial curve]
COc1ccccc1CNC(=O)CN1C(=O)CSc2ccc(S(=O)(=O)N(C)C)cc21 | inactive: 3.42% | 
Cc1cc(C)cc(NC(=O)CCc2nnc3n(CC(C)C)c(=O)c4ccccc4n23)c1 | inactive: -7.81% | 
CCOc1ccc(NC(=O)c2ccccc2OC)cc1 |  | active: 3.98 µM
O=S(=O)(NCc1ccccc1)c1ccc(-c2cnc(C3CC3)o2)cc1 |  | inconclusive: 31.6 µM [cytotoxic, single point]
CCCCCn1c(=N)c(S(=O)(=O)c2ccccc2)cc2c(=O)n3ccccc3nc21 | inactive: -0.5% | 
O=S1(=O)Nc2c(ccc3cccnc23)-c2ccccc21 | inactive: -17.9% | 
O=c1[nH]c(Nc2nc3ccccc3o2)nc2c1CCCC2 |  | inconclusive: 12.6 µM [cytotoxic, partial curve]

Compound | activity change, negative = cell killing | Potency
CC(C)CCNC(=O)CSc1c2c(nc3ccc(Cl)cc13)CCCC2 |  | inconclusive: 20 µM [cytotoxic, single point]
c1ccc(Cn2nnc3c(Nc4ccc5c(c4)OCO5)nc(C4CC4)nc32)cc1 |  | inconclusive: 15.8 µM [cytotoxic, single point]
Clc1cccc(-c2csc(-c3nc(-c4ccc(Br)s4)cs3)n2)c1 | inactive: -1.4% | 
CCOc1ccc(NC(=O)c2cc(S(=O)(=O)NC3CCCC3)ccc2F)cc1 |  | inconclusive: 0.005 µM [cytotoxic, full curve, poor fit]
COc1ccc(-c2cc(C(C)=O)c(C)n2CCC(=O)Nc2ccc(C(F)(F)F)cc2)cc1 |  | inconclusive: 7.94 µM [cytotoxic, partial curve]
CCN(CC)c1ccc(NC(=O)c2ccco2)cc1 |  | active: 10 µM
CCn1nc(C)c(CCN(C)C(=O)Nc2cc(C)cc(C)c2)c1C | inactive: -9.78% | 
COc1ccc2nc(NC(=O)CSC3=NCCS3)sc2c1 |  | inconclusive: 12.6 µM [cytotoxic, single point]
O=C(CSc1ncc(-c2ccccc2)[nH]1)Nc1cccc(C(F)(F)F)c1 |  | inconclusive: 31.6 µM [cytotoxic, single point]
COc1ccc(NC(=O)Nc2ccc(OCC(=O)N3CCOCC3)cc2)cc1OC |  | inconclusive: 7.94 µM [cytotoxic, partial curve]
O=C(Cn1nc(C(F)(F)F)c2c1CCC2)Nc1ccc(Cl)cc1 | inactive: -25.4% | 
c1ccc(-c2nnc(CN3CCN(c4ccccc4)CC3)o2)cc1 | inactive: -9.18% | 
CCNC(=O)NC(=O)COC(=O)c1ccccc1SCC(=O)NC(=O)NCC |  | inconclusive: 12.6 µM [cytotoxic, single point]
COc1ccc(-n2c(=O)c(C)nc3cnc(N(C)C)nc32)cc1 | inactive: -4.1% | 
Oc1ccc(CN2CCCCC2)c2cccnc12 |  | inconclusive: 35.5 µM [cytotoxic, single point]
Cc1ccc2nc(Cl)c3cc(C(=O)NC4CCC(C)CC4)sc3c2c1 (stereo not drawn) | inactive: 14.5% | 
Cc1ccc(OCC(=O)Nc2cccc(C(=O)OCc3cc(=O)n4nc(C)sc4n3)c2)cc1 |  | inconclusive: 31.6 µM [cytotoxic, single point]
Cc1c(-c2nc(N)nc(Nc3ccccc3F)n2)oc2ccccc12 | inactive: -16.7% | 
O=C(NCCN1CCCCC1)c1ccc(Cn2c(SCc3cccc(F)c3)nc3cccnc32)cc1 |  | inconclusive: 20 µM [cytotoxic, partial curve]
O=C(Nc1cc(Cl)cc(Cl)c1)c1ccc(F)c(S(=O)(=O)NC2CCCCC2)c1 |  | active: 25.1 µM
Cc1ccc2nc(N3CCN(c4cccc(C)c4C)CC3)c3nncn3c2c1 |  | inconclusive: 25.1 µM [cytotoxic, single point]
Cc1cccc(NC(c2ccccc2C)c2ccc3ccc(C)nc3c2O)n1 (stereo not drawn) |  | inconclusive: 7.94 µM [cytotoxic, partial curve]
O=C(Nc1ccc(OCc2cc(=O)n3ccccc3n2)cc1)c1ccccc1Cl | inactive: 1.51% | 
